The supplement of paper PMC10126150
Sequences with one replicate were seen in a single cluster, so their values are uncertain.

tested on: ATP; test: switch fluorescence ratio, 500 uM ATP over buffer (Cy3 cluster intensity, sum of 5 cycles each) (fold (ratio)); higher = stronger signal-on switching upon ATP binding; sequences stand for … in TCGTCGGCAGCGTCAGATGTGTATAAGAGACAGTTTTTTTTTTTTTTTTTTTTTTTTT…TC; conditions: aptamer strand: ATP DNA aptamer (quencher-CACCTGGGGGAGTATTGCGGAGGAAGG + anchor), 100 nM annealed; ATP concentration: 500 uM; one replicate
Summary of the method: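 Per cluster, summed Cy3 intensity from the target cycles was divided by that from the buffer cycles to give the fluorescence ratio, then averaged per switch-domain sequence. Clusters outside 100-1000 RFU were excluded. The Cy3-labelled switching-strand clusters, on a modified Illumina MiSeq flow-cell, were annealed to 100 nM quencher-labelled ATP aptamer and imaged in selection buffer, then after 15 min with 500 uM ATP at 22 °C, for five cycles with NaOH stripping and re-annealing between them.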
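Further: ATP exposure 15 min at 22 °C before imaging.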

| Sequence | switch fluorescence ratio |
| --- | --- |
| TTCCCTTGGC | 0.93 |
| TTCCGAGCT | 2.44 |
| TTCCGCCCGC | 1.73 |
| TTCCGCTGAG | 2.07 |
| TTCCGGTGCT | 1.31 |
| TTCCGGTTCG | 1.02 |
| TTCCGTACAA | 3.89 |
| TTCCGTACTG | 1.01 |
| TTCCTAGTTA | 1.01 |
| TTCCTCTGCG | 2.31 |
| TTCGAAAGGG | 1.02 |
| TTCGAGAGGT | 0.982 |
| TTCGAGGGCA | 1 |
| TTCGAGGGGT | 1.03 |
| TTCGAGTGGT | 0.977 |
| TTCGATAGGG | 0.989 |
| TTCGCAGGCC | 1.3 |
| TTCGCATCCC | 1.32 |
| TTCGCCGGAA | 1.14 |
| TTCGCCTCTC | 1.25 |
| TTCGCGTCA | 1.02 |
| TTCGGACACG | 1.04 |

| Sequence | switch fluorescence ratio |
| --- | --- |
| TTCGGAGGGG | 1.22 |
| TTCGGCGGGA | 0.942 |
| TTCGGCTTAT | 0.999 |
| TTCGGGTTGT | 0.972 |
| TTCGTAGAGA | 1 |
| TTCGTATTAA | 0.995 |
| TTCGTGACCG | 0.989 |
| TTCGTGCTTG | 0.955 |
| TTCGTGGAA | 1.05 |
| TTCGTGGTAG | 1.03 |
| TTCGTTATTT | 0.996 |
| TTCTAAAGTC | 0.991 |
| TTCTAACGCC | 1.04 |
| TTCTAACTGC | 1.06 |
| TTCTAAGAAC | 1.07 |
| TTCTACGTTT | 1.08 |
| TTCTAGGGTT | 0.951 |
| TTCTATGCTC | 0.999 |
| TTCTATGTGT | 0.995 |
| TTCTCACCAA | 1.21 |
| TTCTCAGCAT | 2.24 |
| TTCTCATCT | 0.993 |

| Sequence | switch fluorescence ratio |
| --- | --- |
| TTCTCTCGTC | 1.02 |
| TTCTCTGCTG | 1.18 |
| TTCTCTTGTG | 0.976 |
| TTCTGAAACC | 1.07 |
| TTCTGAATCT | 0.982 |
| TTCTGCAGAA | 1.09 |
| TTCTGCGCGC | 1.01 |
| TTCTGGCCAG | 1.01 |
| TTCTGGCTTA | 1 |
| TTCTGTAGC | 1.71 |
| TTCTGTCCG | 0.98 |
| TTCTGTGCCT | 1.01 |
| TTCTGTTACG | 1.04 |
| TTCTGTTGTT | 1.06 |
| TTCTTAAAGA | 1.04 |
| TTCTTAACAC | 0.973 |
| TTCTTATGTT | 0.988 |
| TTCTTCCCAA | 1.45 |
| TTCTTCTCCA | 0.99 |
| TTCTTGCCCT | 1.02 |
| TTCTTTGTGG | 0.983 |
| TTGAAAAGGC | 1 |

| Sequence | switch fluorescence ratio |
| --- | --- |
| TTGAAAATTA | 0.933 |
| TTGAAAGCAT | 1.02 |
| TTGAAAGGCA | 1 |
| TTGAAAGTCT | 0.958 |
| TTGAAATCGG | 0.999 |
| TTGAACCACT | 1.05 |
| TTGAACTGGG | 1.04 |
| TTGAAGACGG | 0.912 |
| TTGAAGACTT | 1.02 |
| TTGAATATT | 1.01 |
| TTGAATTGTA | 0.985 |
| TTGAATTGTG | 0.997 |
| TTGACATTTA | 1.08 |
| TTGACCCGCT | 3.37 |
| TTGACCTTGA | 1.03 |
| TTGACGGTTG | 1.03 |
| TTGACGTTCG | 1.18 |
| TTGACTGAA | 1.06 |
| TTGACTGGGC | 0.92 |
